According to the supplement of paper PMC12217912:
The list shows a part of the results. The full chains were built here from the parent and the listed change. Values near 0.05 are background.

B1: TEV protease; numbered along this chain (parent)
chain: MGESLFKGPRDYNPISSSICHLTNESDGHTTSLYGIGFGPFIITNKHLFRRNNGTLVVQSLHGVFKVKDTTTLQQHLVDGRDMIIIRMPKDFPPFPQKLKFREPQREERICLVTTNFQTKSMSSMVSDTSCTFPSGDGIFWKHWIQTKDGQCGSPLVSTRDGFIVGIHSASNFTNTNNYFTSVPKNFMELLTNQEAQQWVSGWRLNADSVLWGGHKVFMVKPEEPFQPVKEATQL

Variants of: B1
Test: raw area under fraction-flipped curve 0-4 h after induction (AUC4h, not background-subtracted), DNA-recorder readout of cleavage of the substrate (dimensionless); higher = more cleavage of the substrate by the protease variant
Conditions: temperature: 34 °C; time window: 0-4 h after rhamnose induction
Protocol: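 In vivo DNA recorder in E. coli TOP10(DE3) ΔrhaA at 34 °C. Each TEVp single-site mutant (parent TEVp 0) is paired with a single-site variant of the 7-mer TEVs (canonical ENLYFQ|S). The substrate sits between flexible linkers in a Bxb1-sfGFP-TEVs-SsrA fusion, so cleavage stabilises Bxb1 and speeds flipping of a recombination array, read by NGS. The value is the raw area under the fraction-flipped curve over 0-4 h after rhamnose induction (AUC4h), with ≥20 reads per time point. It is not background-subtracted; inactive controls average about 0.047.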
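Further: Bxb1 expression induced with 0.2% (w/v) L-rhamnose at OD600 near 0.5, cultures sampled hourly, flipped fraction per protease–substrate barcode pair counted by paired-end Illumina sequencing.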

Row | Variant | area with substrate ENLYAQS | area with substrate ENLYDQS | area with substrate ENLYEQS | area with substrate ENLYGQS | area with substrate ENLYHQS | area with substrate ENLYIQS | area with substrate ENLYKQS | area with substrate ENLYLQS | area with substrate ENLYMQS | area with substrate ENLYNQS | area with substrate ENLYPQS | area with substrate ENLYQQS | area with substrate ENLYRQS | area with substrate ENLYSQS | area with substrate ENLYTQS | area with substrate ENLYVQS | area with substrate ENLYWQS | area with substrate ENLYCQS | area with substrate ENLYYQS
1 | MGESLFKGPRDYNPISSSICHLTNESDGHTTSLYGIGFGPFIITNKHLFRRNNITLVVQSLHGVFKVKDTTTLQQHLVDGRDMIIIRMPKDFPPFPQKLKFREPQREERICLVTTNFQTKSMSSMVSDTSCTFPSGDGIFWKHWIQTKDGQCGSPLVSTRDGFIVGIHSASNFTNTNNYFTSVPKNFMELLTNQEAQQWVSGWRLNADSVLWGGHKVFMVKPEEPFQPVKEATQL [G54I] | 0.0591 | 0.054 | 0.0576 | 0.0464 | 0.0596 | 0.0671 | 0.0467 | 0.0546 | 0.0644 | 0.0605 | 0.0574 | 0.0443 | 0.0586 | 0.059 | 0.0651 | – | – | – | –
2 | MGESLFKGPRDYNPISSSICHLTNESDGHTTSLYGIGFGPFIITNKHMFRRNNGTLVVQSLHGVFKVKDTTTLQQHLVDGRDMIIIRMPKDFPPFPQKLKFREPQREERICLVTTNFQTKSMSSMVSDTSCTFPSGDGIFWKHWIQTKDGQCGSPLVSTRDGFIVGIHSASNFTNTNNYFTSVPKNFMELLTNQEAQQWVSGWRLNADSVLWGGHKVFMVKPEEPFQPVKEATQL [L48M] | 0.0522 | 0.066 | 0.0645 | – | 0.0589 | 0.0722 | 0.0648 | – | 0.0807 | 0.0489 | 0.0081 | 0.0567 | – | 0.0777 | – | 0.0626 | 0.0785 | – | –
3 | MGESLFKGPRDYNPISSSICHLTNESDGHTTSLYGIGFGPFIITNKHWFRRNNGTLVVQSLHGVFKVKDTTTLQQHLVDGRDMIIIRMPKDFPPFPQKLKFREPQREERICLVTTNFQTKSMSSMVSDTSCTFPSGDGIFWKHWIQTKDGQCGSPLVSTRDGFIVGIHSASNFTNTNNYFTSVPKNFMELLTNQEAQQWVSGWRLNADSVLWGGHKVFMVKPEEPFQPVKEATQL [L48W] | 0.0617 | 0.0662 | 0.0597 | 0.0553 | 0.0596 | 0.0524 | 0.0503 | – | 0.0303 | 0.0635 | 0.0553 | 0.0593 | 0.0613 | 0.054 | – | 0.0579 | 0.0661 | – | –
4 | MGESLFKGPRDYNPISSSICHLTNESDGHTTSLYGIGFGPFIITNKHLFRRNNGTLVVQSLHGVFKVKDTTTLQQHLVDGRDMIIIRMPKDFPPFPQKLKFREPQREERICLVTTNFQTKSMSSMVSDTSCTFPSGDGIFWKHWIQTKMGQCGSPLVSTRDGFIVGIHSASNFTNTNNYFTSVPKNFMELLTNQEAQQWVSGWRLNADSVLWGGHKVFMVKPEEPFQPVKEATQL [D149M] | 0.0512 | 0.0591 | 0.0514 | 0.0561 | 0.0564 | 0.0985 | 0.078 | – | 0.0719 | 0.0584 | 0.0619 | – | 0.0628 | 0.0672 | – | 0.0983 | 0.0795 | 0.0798 | –
5 | MGESLFKGPRDYSPISSSICHLTNESDGHTTSLYGIGFGPFIITNKHLFRRNNGTLVVQSLHGVFKVKDTTTLQQHLVDGRDMIIIRMPKDFPPFPQKLKFREPQREERICLVTTNFQTKSMSSMVSDTSCTFPSGDGIFWKHWIQTKDGQCGSPLVSTRDGFIVGIHSASNFTNTNNYFTSVPKNFMELLTNQEAQQWVSGWRLNADSVLWGGHKVFMVKPEEPFQPVKEATQL [N13S] | 0.0729 | 0.0676 | 0.0694 | 0.0636 | 0.0673 | 0.121 | 0.0668 | 0.0984 | 0.0717 | 0.0694 | 0.0685 | 0.0555 | 0.0616 | 0.0814 | 0.0839 | 0.0986 | 0.0749 | – | 0.0577
6 | MGESLFKGPRDYNPISSSICHLTNESDGHTTSLYGIGFGPFIITNKHLFRRNNGTLVVQSLHGVFKVKDTTTLQQHLVDGRDMIIIRMPKDFPPFPQKLKFREPQREERICLVTTNFQTPSMSSMVSDTSCTFPSGDGIFWKHWIQTKDGQCGSPLVSTRDGFIVGIHSASNFTNTNNYFTSVPKNFMELLTNQEAQQWVSGWRLNADSVLWGGHKVFMVKPEEPFQPVKEATQL [K120P] | 0.068 | 0.02 | – | – | – | 0.112 | – | – | 0.0686 | 0.0718 | 0.0699 | – | 0.0592 | – | – | 0.113 | 0.0882 | – | –
7 | MGESLFKGPRDYNPISSSICHLTNESDGHTTSLYGIGFGPFIITNKHLFRRNNGTLVVQSLHGVFKVKDTTTLQQHLVDGRDMIIIRMPKDFPPFPQKLKFREPFREERICLVTTNFQTKSMSSMVSDTSCTFPSGDGIFWKHWIQTKDGQCGSPLVSTRDGFIVGIHSASNFTNTNNYFTSVPKNFMELLTNQEAQQWVSGWRLNADSVLWGGHKVFMVKPEEPFQPVKEATQL [Q105F] | 0.0757 | – | 0.077 | 0.0672 | 0.0618 | 0.0975 | 0.071 | – | 0.0826 | 0.0725 | – | – | – | – | 0.092 | – | 0.0673 | – | 0.0576
8 | MGESLFKGPRDYNPISSSICHLTNESDGHTTSLYGIGFGPFIITNKHLFRRNNGTLVVQSLHGVFKVKDTTTLQQHLVDGNDMIIIRMPKDFPPFPQKLKFREPQREERICLVTTNFQTKSMSSMVSDTSCTFPSGDGIFWKHWIQTKDGQCGSPLVSTRDGFIVGIHSASNFTNTNNYFTSVPKNFMELLTNQEAQQWVSGWRLNADSVLWGGHKVFMVKPEEPFQPVKEATQL [R81N] | 0.0865 | 0.0539 | 0.0572 | 0.058 | 0.0566 | 0.0769 | 0.0662 | – | – | 0.0608 | 0.0669 | 0.0653 | 0.058 | – | 0.0632 | 0.0657 | – | – | 0.063
9 | MGESLFKGPRDYNPISSSICHLTNESDGHTTSLYGIGFGPFIITNKHLFRRNNGTLVVQSLHGVFKVKDTTTLQQHLVDGRDMIIIRMPKDFPPFPQKLKFREPQREERICLVTTNFQTKSMSSMVSDTSCTFPSGDGIFWKHWIQTKDGQCGSPLVSTRDGFIVGIHSASNFTNTNNYFTSVPKNFMELLTNQEAQQWVSGWRLNADSVLWGGHKVFMRKPEEPFQPVKEATQL [V220R] | 0.0735 | 0.0608 | 0.0723 | 0.069 | 0.0677 | 0.109 | 0.0269 | – | 0.077 | 0.0708 | 0.0752 | 0.0682 | 0.0603 | 0.0722 | – | – | 0.0974 | – | 0.0718
